Assay results: PubChem BioAssay AID504832 (National Center for Advancing Translational Sciences (NCATS), 2011)
Among all 310,000 compounds or so, about 18,000 (5.8%) were called active. This list was built around the results that the source calls inconclusive (neither active nor inactive); the mix of calls is not that of the screen. Calls come from the whole dose curve; as a rule, active = well fitted inhibition curve with a large enough effect; inconclusive = small, poorly fitted or top-dose-only effect, or another doubt; inactive = no such curve, though single readings can be large or run the other way. Potencies of inconclusive entries are left out as doubtful fits.
Potency is the fitted concentration of half-maximal effect; tags give direction and shape of the fitted curve.

Assay: Primary qHTS for delayed death inhibitors of the malarial parasite plastid, 48 hour incubation
Conditions: P. falciparum luciferase growth in erythrocytes; series mostly up to 28.7 µM
Summary of the method: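 Cell-based growth assay: transgenic P. falciparum expressing firefly luciferase, cultured in red cells within RPMI 1640 containing 0.5% w/v Albumax, 24 mM bicarbonate and gentamycin. A drop in luciferase activity indicates inhibition.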
With `COc1ccc(NC(=O)c2ccc(COc3ccccc3)o2)c(OC)c1` the Potency was “inactive”. With `COc1ccc(-c2csc(NC(=O)c3ccc(S(=O)(=O)N4CCc5ccccc5C4)cc3)n2)cc1` the Potency was “inactive”. For `O=C(Nc1ccccc1C(=O)NCC1CCCO1)c1ccc(Cl)cc1Cl` (stereo not given), the Potency was inconclusive [inhibitor, partial curve]. For `CCOc1ccc(C(=O)Nc2ccc(S(=O)(=O)NCC3CCCO3)cc2)cc1OCC` (stereo not given), the Potency was inconclusive [inhibitor, partial curve, poor fit]. With `CCOc1ccc(NC(=O)CSc2nc3ccccc3c(=O)n2CCCC(=O)NCCCN2CCCC2=O)cc1` the Potency was inconclusive [inhibitor, partial curve]. For `O=C(Nc1cccc(Cl)c1)c1ccc(-n2cncn2)c([N+](=O)[O-])c1`, the Potency was active: 11.7 µM. With `CC1CCN(CCNC(=O)c2ccc3c(=O)n(Cc4ccc(Cl)cc4)c(=S)[nH]c3c2)CC1` the Potency was active: 3.7 µM. With `CC(C)(C)C(=O)OCC1OC(n2cnc(C(N)=O)n2)C(O)C1O` (stereo not given) the Potency was “inactive”. In the case of `CCN(CC)c1ccc(/C=C(\C#N)c2nc(-c3cccs3)c(NC(C)=O)s2)cc1`, the Potency is reported as active: 13.1 µM. In the case of `COc1ccc(C(C)(C)C)cc1NC(=O)CCCN1C(=O)CN(C)C1=O`, the Potency is reported as “inactive”. In the case of `COc1ccc(CN(C)C(=O)CNC(=O)CNC(=O)c2ccc(Cl)cc2Cl)cc1F`, the Potency is reported as “inactive”. In the case of `O=C(CSc1nnc(-c2cccc(S(=O)(=O)N3CCCCC3)c2)o1)c1ccc[nH]1`, the Potency is reported as inconclusive [inhibitor, partial curve]. With `O=C(C1=NN[C@@H]2C(=O)N(Cc3ccccc3)C(=O)[C@H]12)c1ccc([N+](=O)[O-])cc1` the Potency was “inactive”. With `CCCN(CC(=O)Nc1ccccc1OC)C(=O)c1cc(-c2cccs2)nn1-c1ccccc1` the Potency was inconclusive [inhibitor, partial curve, poor fit]. For `Cc1ccccc1CC(=O)N1CCCC(CCC(=O)N2CCN(c3ccccn3)CC2)C1` (stereo not given), the Potency was inconclusive [inhibitor, partial curve, poor fit]. For `Cc1cccc(C)c1OC1(c2ccccc2)OC(=O)c2ccccc21` (stereo not given), the Potency was inconclusive [inhibitor, partial curve, poor fit]. With `CCCC(NCC(O)COc1ccc(-c2ccccc2)cc1)c1ccccc1` (stereo not given) the Potency was inconclusive [inhibitor, single point]. For `Cn1nnnc1Sc1ccc([N+](=O)[O-])cc1Cl`, the Potency was inconclusive [inhibitor, single point]. In the case of `Cc1ccc(C)c(NC(=S)NNC(=O)c2csc(C)c2C)c1`, the Potency is reported as “inactive”. In the case of `CC(=O)Nc1cccc(NC(=O)CSc2nnc(NC(=O)C3CC3)s2)c1`, the Potency is reported as inconclusive [inhibitor, partial curve]. In the case of `Cc1ccccc1S(=O)(=O)Cc1ccc(C(=O)NCc2cccnc2)o1`, the Potency is reported as “inactive”. With `O=C(NCc1ccc(Cl)cc1)N1CCN(Cc2ccccc2)CC1` the Potency was “inactive”. For `COc1ccc2c(c1)c(CC(=O)Nc1cc(C)ccc1C)c(C)n2C(=O)c1ccc(Cl)cc1`, the Potency was inconclusive [inhibitor, partial curve, poor fit]. For `Cc1cccc(OCC(=O)NN2C(=O)C3C4C=CC(O4)C3C2=O)c1` (stereo not given), the Potency was “inactive”. In the case of `O=C(CNC(=O)c1ccccc1F)N/N=C/c1ccco1`, the Potency is reported as “inactive”. In the case of `O=C(N/N=C/c1cc([N+](=O)[O-])cc(Br)c1O)C12CC3CCC(CC(C3)C1)C2`, the Potency is reported as inconclusive [inhibitor, full curve, poor fit]. For `CCCN(CC1CC1)C(=O)CSc1ncnc2sccc12`, the Potency was “inactive”. For `Cc1cccc(-c2nnc(SCC(=O)Nc3nc4c(s3)CCCC4)n2C)c1`, the Potency was inconclusive [inhibitor, single point]. With `CC(OC(=O)CNC(=O)c1cccc(F)c1)C(=O)NC1CCCCC1C` (stereo not given) the Potency was inconclusive [inhibitor, single point]. With `Cc1cccc(OCc2nnc(SCC(=O)N3CCc4ccccc43)n2C)c1` the Potency was inconclusive [inhibitor, partial curve, poor fit]. In the case of `c1ccc(CC2CCN(Cc3ccccn3)CC2)cc1`, the Potency is reported as inconclusive [inhibitor, partial curve]. For `Cc1ccc(/C=C/C(=O)c2c(C)cc(C)[nH]c2=O)cc1`, the Potency was inconclusive [inhibitor, partial curve]. With `C=CCOc1cccc(C(=O)N2CCCC(CCC(=O)NCc3ccccc3F)C2)c1` (stereo not given) the Potency was “inactive”. With `O=C(Nc1ccc(Cl)c(S(=O)(=O)N2CCOCC2)c1)c1cn2ccccc2n1` the Potency was inconclusive [inhibitor, single point]. With `O=C(Nc1ccccc1F)C(=Cc1sc(N2CCOCC2)nc1-c1ccccc1)C(=O)Nc1ccccc1F` the Potency was inconclusive [inhibitor, single point]. With `COc1ccc(/C=N/NC(=O)c2cccnc2)cc1CN1CCc2ccccc2C1` the Potency was active: 10.4 µM. In the case of `Cc1cc(N2CCOCC2)ccc1/C=C1\NC(=O)N(CC(=O)Nc2ccc(F)cc2)C1=O`, the Potency is reported as “inactive”. For `Cc1nn(C)cc1S(=O)(=O)N1CCCCC1C` (stereo not given), the Potency was “inactive”. With `CC1=C(/C=C/C(C)=C/C=C/C(C)=C/C(=O)Nc2ccc(O)cc2)C(C)(C)CCC1` the Potency was active: 11.7 µM. With `COc1ccc(S(=O)(=O)N2CCCCC2)cc1NC(=O)CCOc1cc(C)ccc1C` the Potency was inconclusive [inhibitor, single point]. For `CCC(Cc1ccccc1)NS(=O)(=O)c1csc(C(N)=O)c1` (stereo not given), the Potency was “inactive”. With `Cc1nccc(-c2ccc(-n3c(C)ccc3C)cc2)n1` the Potency was inconclusive [inhibitor, partial curve]. For `COc1ccccc1N1CCN(C(=O)CN2C(=O)C3CCCCC3C2=O)CC1` (stereo not given), the Potency was “inactive”. With `Nc1[nH]n2c(=O)c3c(nc2c1N=Nc1ccc(Cl)cc1)CCCC3` the Potency was inconclusive [inhibitor, partial curve]. For `Cc1cc(NC(=O)c2cccs2)n(-c2nc3ccccc3[nH]2)n1`, the Potency was inconclusive [inhibitor, single point]. With `O=C(Nc1cccc(-n2cccn2)c1)C1CCCN(Cc2ccc(C#CCCO)cc2)C1` (stereo not given) the Potency was active: 10.4 µM. In the case of `C[n+]1c(-c2ccccc2)sc2ccccc21`, the Potency is reported as inconclusive [inhibitor, partial curve, poor fit]. For `Cc1ccc2c(c1)C1CN(C)CCC1N2C(=O)c1ccccc1NS(=O)(=O)c1cccc(C(F)(F)F)c1` (stereo not given), the Potency was inconclusive [inhibitor, single point]. For `CCc1cc2c(Nc3ccccc3O)nc(C)nc2s1`, the Potency was inconclusive [inhibitor, single point]. For `COc1ccc(OC)c(C2=NOC(C(=O)N3CCCc4ccccc43)C2)c1` (stereo not given), the Potency was “inactive”. For `Cc1ccc(O)c(NC(=S)NC(=O)CC(C)C)c1`, the Potency was “inactive”. For `O=C(NC1CCCCC1)C(c1ccc2ncccc2c1)N(Cc1ccc(F)cc1)C(=O)c1ccc2c(c1)OCCO2` (stereo not given), the Potency was inconclusive [inhibitor, full curve]. For `Cc1occc1-c1nnc(SCC(=O)Nc2ccccc2)n1C(C)c1ccccc1` (stereo not given), the Potency was inconclusive [inhibitor, partial curve, poor fit]. In the case of `CCc1c(C)nc2ncnn2c1N1CCCC(C(=O)NCc2ccc3c(c2)OCO3)C1` (stereo not given), the Potency is reported as inconclusive [inhibitor, single point]. For `CCCCN(CC)C(=O)Cn1c(=O)sc2ccccc21`, the Potency was “inactive”. In the case of `CN(Cc1nccs1)C(=O)C1CCC(=O)N(Cc2ccccc2F)C1` (stereo not given), the Potency is reported as “inactive”. With `C[C@H](NC(=O)Nc1ccccc1F)C(=O)O` the Potency was “inactive”. With `COc1ccc(N(CC(=O)NC2CCCCCC2)S(=O)(=O)c2ccc(C)cc2)cc1OC` the Potency was inconclusive [inhibitor, single point]. For `O=C(Nc1ccc(C(=O)O)cc1)Nc1ccc([N+](=O)[O-])cc1`, the Potency was “inactive”. With `CCSc1nc2sc3c(c2c(=O)[nH]1)CC(C)(CC)OC3` (stereo not given) the Potency was inconclusive [inhibitor, full curve]. In the case of `COc1ccc(-n2c(C)c(C(C)=O)c3cc(OCC(N)=O)ccc32)cc1`, the Potency is reported as inconclusive [inhibitor, partial curve, poor fit]. For `COc1cccc(C(=O)Nc2cc(C(=O)NCc3ccc(C)cc3)ccc2N2CCC3(CC2)CC(c2cccc(Br)c2)=NO3)c1`, the Potency was active: 10.4 µM. With `Fc1ccccc1COc1ccc(/C=N/NC(=S)NCc2ccccc2)cc1` the Potency was inconclusive [inhibitor, single point]. With `Cc1ccc(-c2nc3ncccc3o2)cc1NC(=O)C(C)C` the Potency was inconclusive [inhibitor, single point]. For `Cc1nnsc1C(=O)Nc1ccc(S(=O)(=O)N2CCCC(C)C2)cc1` (stereo not given), the Potency was “inactive”. For `COc1cc2c(cc1OC)C(C)N(C(=O)Cc1ccc(C(F)(F)F)cc1)CC2` (stereo not given), the Potency was inconclusive [inhibitor, partial curve]. In the case of `COc1ccc(C(=O)N2CCN(c3ccc([N+](=O)[O-])c(NCCc4ccc(OC)c(OC)c4)c3)CC2)cc1`, the Potency is reported as active: 10.4 µM. With `CCOC(=O)c1c(C)[nH]c(C(=O)COC(=O)/C=C/c2ccc(O)c(OC)c2)c1C` the Potency was inconclusive [inhibitor, single point]. In the case of `CC(=O)c1ccc(NC(=O)CSc2nnc(-c3ccncc3)o2)cc1`, the Potency is reported as inconclusive [inhibitor, partial curve, poor fit]. In the case of `CCN1C(=O)[C@H]2[C@@H](c3ccc(C)cc3)N3C(=O)N(c4ccccc4)C(=O)[C@@]3(Cc3ccccc3)[C@H]2C1=O`, the Potency is reported as “inactive”.
